Target: erbB1 (EGFR) (Homo sapiens, UniProt P00533)
Experiment: Inhibition of erbB1 autophosphorylation in EGF-stimulated intact A431 cells (Western immunoblotting)
Format: cell-based
Conditions: 1 hour treatment
Protocol: A431 cells were seeded into 6 well plates (with αMEM+5% FCS). The following day, plates were washed once with serum-free medium and grown for 18 hours in serum-free medium (αMEM) before being exposed to a range of inhibitor or prodrug concentrations for 1 hour and then stimulated for 15 minutes with 100 ng/ml epidermal growth factor (EGF receptor ligand). Next cells were washed with ice cold PBS and lysed in modified RIPA buffer on ice (30 min). Lysates were vortexed and clarify by spinning before protein concentrations of samples was determined by BCA assay. […] All antibodies were diluted in 2% BSA TBS-Tween 0.1%. To detect phospho-EGFR (Tyr 1068) the monoclonal antibody (1:500; Cell Signalling #2234) was incubated overnight at 4° C. and binding was detected with goat-anti-Rabbit-IgG-HRP conjugated secondary antibody (1:5000; Santa Cruz #SC2054; 3 h RT). To detect downstream phospho-p44/42 MAPK(Erk 1/2) (Thr202/Tyr 204) the monoclonal antibody (Cell Signalling #4370) was used at a 1:500 dilution. The blot was then treated with Goat anti-rabbit IgG-HRP conjugated secondary antibody (Santa Cruz Biotechnology, Inc. sc-2054) for three hours at a ratio of 1:5000. To normalise for any inaccuracy in gel loading, each blot was probed with anti-β-actin antibody (Abacus ALS #MAB-1501R, 1:2000 dilution). […] Densitometry was determined using Image J software. […]

erbB1 (EGFR), sequence (P00533 25-1210): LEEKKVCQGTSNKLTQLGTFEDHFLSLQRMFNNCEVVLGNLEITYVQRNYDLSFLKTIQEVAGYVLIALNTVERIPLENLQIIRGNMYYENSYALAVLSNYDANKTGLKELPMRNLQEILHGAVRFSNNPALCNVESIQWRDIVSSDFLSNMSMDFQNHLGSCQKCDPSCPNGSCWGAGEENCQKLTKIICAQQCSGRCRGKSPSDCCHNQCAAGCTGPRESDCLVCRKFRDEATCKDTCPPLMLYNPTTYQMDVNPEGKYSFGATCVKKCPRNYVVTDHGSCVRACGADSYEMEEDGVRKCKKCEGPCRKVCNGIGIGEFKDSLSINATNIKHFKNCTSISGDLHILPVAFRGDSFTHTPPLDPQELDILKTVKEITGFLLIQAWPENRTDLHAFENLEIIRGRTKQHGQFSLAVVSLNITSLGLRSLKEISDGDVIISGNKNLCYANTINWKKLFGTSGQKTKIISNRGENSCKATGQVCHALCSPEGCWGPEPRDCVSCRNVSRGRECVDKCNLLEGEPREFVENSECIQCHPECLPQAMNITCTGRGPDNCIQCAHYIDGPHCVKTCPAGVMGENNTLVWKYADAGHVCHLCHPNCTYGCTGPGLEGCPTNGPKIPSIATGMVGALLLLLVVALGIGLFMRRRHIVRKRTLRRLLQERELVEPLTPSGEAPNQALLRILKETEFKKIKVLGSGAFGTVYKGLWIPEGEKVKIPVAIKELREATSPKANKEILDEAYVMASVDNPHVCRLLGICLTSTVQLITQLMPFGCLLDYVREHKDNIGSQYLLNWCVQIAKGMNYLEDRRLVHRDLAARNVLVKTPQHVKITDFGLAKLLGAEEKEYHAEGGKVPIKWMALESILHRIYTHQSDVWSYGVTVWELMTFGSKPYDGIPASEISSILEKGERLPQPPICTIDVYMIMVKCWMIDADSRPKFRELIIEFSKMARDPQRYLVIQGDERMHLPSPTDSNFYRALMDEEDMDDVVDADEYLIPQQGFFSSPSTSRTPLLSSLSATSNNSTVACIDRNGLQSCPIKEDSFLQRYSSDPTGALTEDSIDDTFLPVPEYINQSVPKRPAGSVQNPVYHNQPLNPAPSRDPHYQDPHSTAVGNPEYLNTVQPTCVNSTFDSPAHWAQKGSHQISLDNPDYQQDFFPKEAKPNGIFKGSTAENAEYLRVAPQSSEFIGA

Cn1cnc([N+](=O)[O-])c1C[N+](C)(C)C/C=C/C(=O)Nc1cc2c(Nc3ccc(OCc4ccccn4)c(Cl)c3)ncnc2cn1 [Compound 15, (2E)-4-({4-[3-chloro-4-(2-pyridinylmethoxy)anilino]pyrido[3,4-d]pyrimidin-6-yl}amino)-N,N-dimethyl-N-[(1-methyl-4-nitro-1H-imidazol-5-yl)methyl]-4-oxo-2-buten-1-ammonium bromide]
fold less effective at inhibiting erbB1 autophosphorylation than its respective inhibitor, compound 3: 110 fold

Source: patent US9101632B2, “Kinase inhibitors, prodrug forms thereof and their use in therapy” (AUCKLAND UNISERVICES LIMITED, priority 2009, dated 2015)
